Measurements from ChEMBL document CHEMBL6109158, “Discovery of Novel Bifunctional Agents as Potent Androgen Receptor Antagonists and Degraders for the Treatment of Enzalutamide-Resistant Prostate Cancer” (J Med Chem, 2025).

Assays:
Androgen receptor = target: T1, Androgen receptor (Homo sapiens, UniProt P10275)
T1 sequence (P10275 whole entry): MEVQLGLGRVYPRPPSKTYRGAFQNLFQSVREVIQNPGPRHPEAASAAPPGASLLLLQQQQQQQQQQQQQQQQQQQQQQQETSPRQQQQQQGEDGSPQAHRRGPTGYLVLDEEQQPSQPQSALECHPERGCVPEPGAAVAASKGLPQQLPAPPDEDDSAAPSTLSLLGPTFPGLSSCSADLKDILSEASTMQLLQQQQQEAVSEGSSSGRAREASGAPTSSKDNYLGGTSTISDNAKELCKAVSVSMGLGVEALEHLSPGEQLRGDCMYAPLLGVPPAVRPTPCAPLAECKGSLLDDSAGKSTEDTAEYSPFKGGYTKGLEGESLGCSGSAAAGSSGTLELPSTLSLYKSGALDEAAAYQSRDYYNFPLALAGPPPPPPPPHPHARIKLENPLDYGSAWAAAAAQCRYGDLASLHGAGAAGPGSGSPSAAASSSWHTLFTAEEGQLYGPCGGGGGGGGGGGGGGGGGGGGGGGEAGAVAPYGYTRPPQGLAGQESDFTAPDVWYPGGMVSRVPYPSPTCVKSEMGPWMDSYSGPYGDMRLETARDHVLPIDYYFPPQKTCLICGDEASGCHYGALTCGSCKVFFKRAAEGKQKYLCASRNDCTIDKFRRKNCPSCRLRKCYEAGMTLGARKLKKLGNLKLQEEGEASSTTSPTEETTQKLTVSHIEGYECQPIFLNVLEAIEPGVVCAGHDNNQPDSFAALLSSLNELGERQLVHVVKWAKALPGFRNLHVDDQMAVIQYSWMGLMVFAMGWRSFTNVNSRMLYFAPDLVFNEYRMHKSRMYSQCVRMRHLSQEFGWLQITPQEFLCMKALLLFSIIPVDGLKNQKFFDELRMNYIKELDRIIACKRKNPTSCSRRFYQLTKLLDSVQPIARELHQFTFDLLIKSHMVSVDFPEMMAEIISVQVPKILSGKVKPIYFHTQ

CWR22R = assay: cells; assay type: functional, cell-based; conditions: Homo sapiens, 22Rv1, […]
cells [1] = assay type: functional, cell-based; conditions: Homo sapiens, Enzalutamide-resistant C4-2B
LNCaP = assay: cells; assay type: functional, cell-based; conditions: Homo sapiens
LNCaP C4-2 = assay: cells; assay type: functional, cell-based; conditions: Homo sapiens
cells [2] = assay type: functional, cell-based; conditions: Homo sapiens, Enzalutamide-resistant LNCaP

SMILES: COc1cc(NC(=O)[C@@](C)(O)CN2CC3CCC(C2)N3c2ccc(C#N)cc2)ccc1C#N
- IC50 (Androgen receptor): 319 nM

SMILES: C[C@](O)(CN1CC2CCC(C1)N2c1cnc(C#N)nc1)C(=O)Nc1cnc(C#N)c(C(F)(F)F)c1
- IC50 (Androgen receptor): 371 nM

SMILES: C[C@](O)(CN1C2CCC1CN(c1ccc(C#N)cc1)C2)C(=O)Nc1ccc(C#N)c(C(F)(F)F)c1
- IC50 (CWR22R): 4170 nM

SMILES: COc1c(C#N)ccc(NC(=O)[C@@](C)(O)CN2CC3CCC(C2)N3c2ccc(C#N)cc2)c1F
- IC50 (Androgen receptor): 1420 nM

SMILES: C[C@](O)(CN1CC2CCC(C1)N2c1ccc(C#N)cc1)C(=O)Nc1cnc(C#N)c(Cl)c1
- IC50 (Androgen receptor): 233 nM

SMILES: C[C@](O)(CN1CC2CCC(C1)N2c1ccc(C#N)cc1)C(=O)Nc1ccc(C#N)c(C(F)(F)F)c1
- IC50 (cells [1]): 6270 nM
- IC50 (CWR22R): 2360 nM
- IC50 (LNCaP): 1770 nM
- IC50 (LNCaP C4-2): 1480 nM

SMILES: CNC(=O)c1ccc(N2C(=S)N(c3ccc(C#N)c(C(F)(F)F)c3)C(=O)C2(C)C)cc1F [ENZALUTAMIDE]
- IC50 (cells [1]): 17000 nM
- IC50 (cells [2]): 18400 nM
- IC50 (LNCaP): 890 nM
- IC50 (LNCaP C4-2): 1160 nM
